PubChem BioAssay AID485364 (National Center for Advancing Translational Sciences (NCATS), 2010)
Out of some 360,000 compounds screened, about 11,000 (3.1%) were called active. Inconclusive results, whose numbers are uncertain, are shown with a selection of clear calls. Calls follow the shape of the dose curve; as a rule, active = well fitted inhibition curve with a large enough effect; inconclusive = small, poorly fitted or top-dose-only effect; inactive = no such curve, though single readings can be large or run the other way. No potency is given beside an inconclusive call; the fits are too rough.

The molecules below were run against Schistosoma mansoni thioredoxin glutathione reductase (TGR) (UniProt Q962Y6) (assay: qHTS Assay for the Inhibitors of Schistosoma Mansoni Peroxiredoxins). Conditions: purified TGR, DTNB reduction, TNB absorbance 405 nm; series mostly up to 114 µM.
Procedure, shortened: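 First, TGR (20 nM dispensed) and NADPH were mixed with compound. Second, a 15 min room-temperature incubation followed. Third, further NADPH and then DTNB were added to start the reaction. Finally, TNB absorbance was monitored kinetically.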
Also: nearly all actives have a fitted effect of over 60% in size.
Potency is read from the fitted curve at half-maximal effect; tags tell the direction and shape of the fitted curve.

How did the Potency turn out when O=C(OCc1ccco1)c1cccnc1 was run?
The Potency was inconclusive [inhibitor, partial curve].

Which Potency does the source give for O=C(CN1C(=O)/C(=C/c2ccco2)SC1=S)Nc1ccc(C(=O)O)c(O)c1 here?
Its Potency is active: 14.1 µM.

Cc1ccc(CN(Cc2ccco2)C(=O)c2ccco2)cc1 was tested. Which Potency did it give?
The Potency was “inactive”.

Which Potency does the source give for Cc1cc(=O)n(C(C)C(=O)NCc2ccccc2Cl)c2c1c(C)nn2-c1ccccc1 (configuration not stated) here?
Its Potency is “inactive”.

With CN(C)CCn1nnnc1SCC1=C(C(=O)O)N2C(=O)[C@@H](NC(=O)Cc3csc(N)n3)[C@H]2SC1 as the molecule, how does the Potency read?
Its Potency is active: 31.6 µM.

For COC(=O)c1sccc1NC(=S)Nc1ccc(F)cc1, which Potency is on record?
Its Potency is inconclusive [inhibitor, single point].

With COc1ccc(O)c(CN2CCCC(C(=O)c3ccccc3SC)C2)c1 (configuration not stated) as the molecule, how does the Potency read?
Its Potency is inconclusive [inhibitor, partial curve].

Which Potency does the source give for O=C1CSC(=S)N1/N=C/c1ccc(C(F)(F)F)cc1 here?
Its Potency is inconclusive [inhibitor, full curve, poor fit].

For Cc1ccc(C)n1-c1nnc(N2CCCC(C(=O)NCc3ccccc3)C2)s1 (configuration not stated), which Potency is on record?
The Potency was inconclusive [inhibitor, partial curve].

With Cc1cccc(C)c1NC(=O)CN(C)C(C)C(=O)NCC(=O)Nc1ccc(F)c(F)c1F (configuration not stated) as the molecule, how does the Potency read?
Its Potency is “inactive”.

For CCOc1ccc(N2C(=O)NC(=O)/C(=C\c3ccccc3[N+](=O)[O-])C2=O)cc1, which Potency is on record?
Its Potency is inconclusive [inhibitor, full curve, poor fit].

How did the Potency turn out when CCOC(=O)Nc1nn(-c2ccc(C)cc2)c(=O)c(C#N)c1C was run?
Its Potency is inconclusive [inhibitor, single point].

For Fc1ccc(NC(=S)Nc2cccc(Cl)c2)cc1, which Potency is on record?
The Potency was inconclusive [inhibitor, partial curve].

With COc1ccc(CNCc2ccc([N+](=O)[O-])cc2)cc1OC as the molecule, how does the Potency read?
Its Potency is inconclusive [inhibitor, full curve].

With Cc1ccc(N(C(=O)Cn2nnc3ccccc32)C(C(=O)NCc2ccco2)c2ccc(C)o2)cc1 (configuration not stated) as the molecule, how does the Potency read?
Its Potency is inconclusive [inhibitor, full curve, poor fit].

With CC(C)NC(=S)Nc1cccc2cnccc12 as the molecule, how does the Potency read?
The Potency was inconclusive [inhibitor, partial curve].

How did the Potency turn out when COc1ccccc1NC(=O)CN(Cc1ccco1)C(=O)c1cccs1 was run?
Its Potency is inconclusive [inhibitor, partial curve].

For Cc1nc2sc(C(=O)Nc3ccccc3)c(N)c2c(C)c1[N+](=O)[O-], which Potency is on record?
Its Potency is inconclusive [inhibitor, partial curve].

With N#Cc1nc(Cc2cccc3ccccc23)oc1NCc1ccco1 as the molecule, how does the Potency read?
Its Potency is inconclusive [inhibitor, partial curve].

With COc1ccccc1C(OC(=O)c1cccs1)C(=O)NCc1ccco1 (configuration not stated) as the molecule, how does the Potency read?
Its Potency is active: 12.6 µM.

Which Potency does the source give for COc1cc(C(=O)OCC(=O)NC(=O)NC2CCCCC2)cc(Cl)c1OC here?
Its Potency is “inactive”.

How did the Potency turn out when CCOc1ccc(-c2cccc(NC(=O)COc3ccc(Cl)cc3)c2)nn1 was run?
Its Potency is “inactive”.

COc1cccc(C2CC(=O)N3CN(C4CCCCC4)CSC3=C2C#N)c1 (configuration not stated) was tested. Which Potency did it give?
The Potency was active: 2.51 µM.

For Cc1ccccc1-n1nc2c(c1NC(=O)c1ccc(Br)o1)CSC2, which Potency is on record?
The Potency was active: 31.6 µM.

With CCc1ccc(-c2cc(C)no2)cc1S(=O)(=O)Nc1ccc(Cl)cc1 as the molecule, how does the Potency read?
The Potency was “inactive”.

With O=C(c1ccco1)N1CCN(c2ncnc3c2[nH]c2ccccc23)CC1 as the molecule, how does the Potency read?
Its Potency is inconclusive [inhibitor, partial curve].

Which Potency does the source give for CN(CCO)c1ccc(-c2nn(C)c(=O)c3ccccc23)cc1[N+](=O)[O-] here?
Its Potency is “inactive”.

For Cc1ccc(-c2nc(S(=O)(=O)c3ccc(C)cc3)c(SCC(=O)NC3CCCCC3)o2)cc1, which Potency is on record?
Its Potency is “inactive”.

How did the Potency turn out when O=C(NCC(=O)N(Cc1cccs1)C(C(=O)NC1CCCCC1)c1ccncc1)c1ccco1 (configuration not stated) was run?
Its Potency is active: 44.7 µM.

CCOC(=O)N1CCN(C(=O)CSc2nnc3[nH]c(=O)c(C)c(C)n23)CC1 was tested. Which Potency did it give?
The Potency was “inactive”.

How did the Potency turn out when CC(C)[C@H](NC(=O)OC(C)(C)C)c1nnc(S(=O)(=O)Cc2c(F)cccc2Cl)o1 was run?
Its Potency is active: 1 µM.

For CC(C)c1ccc(NC(=O)c2ccc(Br)o2)cc1, which Potency is on record?
Its Potency is “inactive”.

Which Potency does the source give for CCC(SC1=Nc2ccccc2C2=NC(CC(C)C)C(=O)N12)C(=O)Nc1ccc2c(c1)OCO2 (configuration not stated) here?
Its Potency is inconclusive [inhibitor, partial curve].

For Cc1csc(NC(=O)CCn2c(=O)oc3ccc(Cl)cc32)n1, which Potency is on record?
The Potency was inconclusive [inhibitor, partial curve].

Cc1ccc(N2C(=O)c3ccccc3C2Nc2ccccc2F)nc1 (configuration not stated) was tested. Which Potency did it give?
The Potency was “inactive”.

Which Potency does the source give for O=S(=O)(N1CCCCC1)N1CCN(c2cc(Cl)ccc2Cl)CC1 here?
The Potency was “inactive”.

COc1ccc(C(c2nnnn2CCc2ccccc2)N2CCN(C)CC2)cc1OC (configuration not stated) was tested. Which Potency did it give?
The Potency was active: 89.1 µM.

With CCc1cc(CNC(=O)CC2C(=O)NCCN2Cc2cccc(OC)c2)on1 (configuration not stated) as the molecule, how does the Potency read?
Its Potency is inconclusive [inhibitor, full curve].

How did the Potency turn out when COc1ccc(NC(=O)CC2C(=O)N(c3ccc(Cl)cc3)C(=S)N2CCc2ccncc2)cc1 (configuration not stated) was run?
The Potency was “inactive”.

How did the Potency turn out when Cc1cccc(CN2CCCC(C(=O)Nc3ccc(-c4cscn4)cc3)C2)c1 (configuration not stated) was run?
Its Potency is “inactive”.

How did the Potency turn out when CN1CC(=O)N/C1=N\C(=O)Nc1ccc2c(c1)N(C)C(=O)CS2 was run?
Its Potency is inconclusive [inhibitor, full curve, poor fit].

How did the Potency turn out when COc1ccc(OC)c2c(C)c(C)[nH]c12 was run?
The Potency was active: 31.6 µM.

For COc1ccc(C(=O)NCCn2cc(SCC(=O)NCc3ccco3)c3ccccc32)cc1, which Potency is on record?
The Potency was inconclusive [inhibitor, partial curve].

COCCCn1c(=O)c2sccc2n2c(CCCC(=O)N(C)Cc3ccco3)nnc12 was tested. Which Potency did it give?
Its Potency is “inactive”.

With OC[C@H](O)[C@H](O)[C@@H](O)[C@@H](O)[C@@H]1SC(c2ccccc2)=NN1c1ccccc1 as the molecule, how does the Potency read?
The Potency was inconclusive [inhibitor, partial curve].

Which Potency does the source give for CCN(CC)c1ccc2c(C)cc(=O)oc2c1 here?
Its Potency is inconclusive [inhibitor, partial curve].

Which Potency does the source give for Cc1cc(C)nc(NS(=O)(=O)c2ccc(NC(=S)NC(=O)C(C)(C)C)cc2)n1 here?
Its Potency is inconclusive [inhibitor, partial curve].
